# Assay results taken from PubChem BioAssay AID504845 (National Center for Advancing Translational Sciences (NCATS), 2011).
# Where “and” joins values, the source holds several entries; their conditions need not be identical. Equal values may be shown once. The whole screen tested about 390,000 compounds, of which about 150 (0.038%) were called active. Inconclusive means that the source gave no clear call. Such entries were picked first, then a sample of the others. The call rests on the fitted dose curve; in most records, active means well fitted inhibition curve with a large enough effect; inconclusive means small, poorly fitted or top-dose-only effect; inactive means no such curve, though single readings can be large or run the other way. A potency beside an inconclusive call is a rough fit, not a confirmed value.
# Biological target: Regulator of G-protein signaling 4 (Homo sapiens) (UniProt P49798)
# Sequence of UniProt P49798 (P49798 whole entry, looked up): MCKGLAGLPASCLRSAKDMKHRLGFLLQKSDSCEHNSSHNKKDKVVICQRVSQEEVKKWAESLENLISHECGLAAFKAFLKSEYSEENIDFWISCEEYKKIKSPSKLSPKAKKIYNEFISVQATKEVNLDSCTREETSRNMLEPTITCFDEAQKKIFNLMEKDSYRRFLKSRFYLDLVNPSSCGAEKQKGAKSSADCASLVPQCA
# Test: Inhibitors of Regulator of G Protein Signaling (RGS) 4: qHTS; further: nearly all actives have a fitted effect of over 75% in size
# Settings: Transcreener GDP fluorescence polarization, RGS4-accelerated GTP hydrolysis; series mostly up to 114 µM
# In short: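 MLSMR compounds (23 nl, pin-transferred) preincubated 10 min at room temperature with a 500nM (2x) first reagent, then RGS4 at 900nM (2x) plus Transcreener GDP mix added; fluorescence polarization (620/688 nm) read before and after 90 min at 30 °C.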
# Potency means the concentration at half of the fitted maximal effect; tags describe the fitted curve by direction and shape.
row,SMILES,Potency
1,O=C(CN1CCN(c2cccc(Cl)n2)CC1)N1CC(O)CO1 (centres undefined),"inconclusive: 100 µM [inhibitor, single point]"
2,N#C/C(=C\c1c(Oc2ccc(F)cc2)nc2ccccn2c1=O)c1nc2ccccc2s1,"inconclusive: 28.2 µM [inhibitor, full curve, poor fit]"
3,Cc1ccc(NC(=O)C2=C(c3ccccc3)S(=O)(=O)CCS2(=O)=O)cc1,"inconclusive: 79.4 µM [inhibitor, partial curve, poor fit]"
4,COc1ccc(NCC(=O)Nc2ccc(C#N)cc2)cc1Cl,"inconclusive: 79.4 µM [inhibitor, single point]"
5,CC(=O)Oc1ccccc1N(C(C)=O)S(=O)(=O)c1ccc2ccccc2c1,inactive
6,O=C(Nc1ccccc1)NC1CCN(Cc2ccccc2)CC1,inactive
7,CCn1ccnc1CN1CCc2c([nH]c3ccccc23)C1C1CCCCC1 (centres undefined),"inconclusive: 44.7 µM [inhibitor, partial curve, poor fit]"
8,COc1ccc(C(=O)NCc2ccccc2)cc1S(=O)(=O)N1CCCc2ccccc21,"inconclusive: 89.1 µM [inhibitor, single point]"
9,CC(C)NCC(O)c1cc(O)cc(O)c1 (centres undefined),"inconclusive: 37.7 µM [inhibitor, single point]"
10,CCOC(=O)c1cc(CC)sc1NC(=O)CN1CCN(C(=O)c2ccco2)CC1,"inconclusive: 31.6 µM [inhibitor, full curve, poor fit]"
11,Cc1nn(-c2ccccc2)c2nc(-c3ccco3)cc(C(=O)O)c12,"inconclusive: 44.7 µM [inhibitor, partial curve, poor fit]"
12,S=C1NCCNC(=S)NCCOCCOCCN1,"inconclusive: 89.1 µM [inhibitor, partial curve, poor fit]"
13,Cc1ccc(/C=C/C(=O)NC2CCCCCCC2)o1,"inconclusive: 44.7 µM [inhibitor, partial curve, poor fit]"
14,CC(C)(C)NC(=S)Nc1ccc(Nc2ccccc2)cc1,"inconclusive: 89.1 µM [inhibitor, partial curve, poor fit]"
15,COc1ccc(OC)c(C2CC(=O)N3CN(c4ccccc4)CSC3=C2C#N)c1 (centres undefined),"inconclusive: 17.8 µM [inhibitor, full curve, poor fit]"
16,Cc1cc(O)c(C(C)C)cc1N=Cc1ccc([N+](=O)[O-])cc1,"inconclusive: 31.6 µM [inhibitor, partial curve, poor fit]"
17,O=C(NCc1ccc(F)cc1)C1CCN(c2cnccn2)CC1,"inconclusive: 28.2 µM [inhibitor, full curve, poor fit]"
18,O=C(C[C@H]1C[C@H](C(=O)N2CCCCC2)[C@@]2(CCc3ccccc3)c3[nH]c4cc(-c5ccco5)ccc4c3CCN2C1=O)NCCN1CCOCC1,"inconclusive: 79.4 µM [inhibitor, partial curve, poor fit]"
19,COc1ccc(NC(=O)Nc2nnc(C(C)C)s2)cc1,inactive
20,O=C(Nc1nc(-c2ccncc2)cs1)C1COc2ccccc2O1 (centres undefined),"inconclusive: 50.1 µM [inhibitor, partial curve, poor fit]"
21,CCOc1ccc(CCNC(=O)c2cc3n(n2)CCCN(Cc2ccc(C)cc2)C3=O)cc1OCC,inactive
22,COc1cc(NC(=O)COCc2cc(-c3ccc4c(c3)OCO4)on2)c(OC)cc1Cl,"inconclusive: 79.4 µM [inhibitor, partial curve, poor fit]"

row,SMILES,Potency
1,O=C(O)CN1C(=O)/C(=C\c2cc([N+](=O)[O-])ccc2OCc2ccccc2Cl)SC1=S,"inconclusive: 79.4 µM [inhibitor, partial curve, poor fit]"
2,CCn1ncc(C2=NOC(C(=O)Nc3ccc4c(c3)OCO4)C2)c1C (centres undefined),inactive
3,CC(C)N(Cc1nc(-c2ccccc2)no1)C(=O)C(Cl)(Cl)Cl,inactive
4,COc1cccc(CNC(=O)C2CCCN(c3nn4cc(-c5ccc(C)cc5)nc4s3)C2)c1 (centres undefined),inactive
5,COc1ccc2c(c1)c(=O)oc1cc(OCC(=O)NC3CCCCC3)ccc12,inactive
6,Cn1cnc(S(=O)(=O)N2CCC(C(=O)Nc3ccc(OC(F)(F)F)cc3)CC2)c1,inactive
7,CCN(CC)c1cc(NC2CCCCC2)c2c3c(onc13)-c1ccccc1C2=O,"inconclusive: 50.1 µM [inhibitor, partial curve, poor fit]"
8,CC(CSc1n[nH]c(=S)s1)c1ccccc1 (centres undefined),"inconclusive: 89.1 µM [inhibitor, partial curve, poor fit]"
9,CN1CCN(S(=O)(=O)c2cccc(C(=O)N(C)Cc3cccs3)c2)CC1,inactive
10,O=C(Nc1cccc(C(F)(F)F)c1)c1ccc2nc(-c3ccco3)c(-c3ccco3)nc2c1,"inconclusive: 44.7 µM [inhibitor, partial curve, poor fit]"
11,CCc1cc2c(=O)[nH]c(Cc3ccc(Cl)cc3)nc2s1,"inconclusive: 89.1 µM [inhibitor, single point]"
12,CCOC(=O)c1sc(NC(=O)CCN2C(=O)c3ccccc3C2=O)c(C(=O)OCC)c1C,"inconclusive: 50.1 µM [inhibitor, partial curve, poor fit]"
13,CC(C)(CO)Cc1cc(C(C)(C)C)c(O)c(C(C)(C)C)c1,"inconclusive: 8.43 µM [inhibitor, partial curve, poor fit]"
14,COc1ccc(NC(=O)Nc2ccc(O)c3ccccc23)cc1,"inconclusive: 50.1 µM [inhibitor, partial curve, poor fit]"
15,O=C1C=C(Nc2ccc(Cl)cc2)CC(c2ccc(Cl)cc2)C1 (centres undefined),inactive
16,COCCN1CC(O)=C(c2nc3ccccc3c(=O)[nH]2)C1=N,"inconclusive: 100 µM [inhibitor, partial curve, poor fit]"
17,O=C(CN1C(=O)NC2(CCCCC2)C1=O)N1CCOCC1,"inconclusive: 89.1 µM [inhibitor, single point]"
18,N#Cc1c(SCC(=O)Nc2nncs2)sc2c(O)cc(=O)[nH]c12,"inconclusive: 79.4 µM [inhibitor, partial curve, poor fit]"
19,Cn1c(=O)c2c(ncn2CCO)n(C)c1=O,"inconclusive: 0.067 µM [inhibitor, full curve, poor fit]"
20,CN(C)c1ccc(/C=N/NC(=O)C(O)(c2ccccc2)c2ccccc2)o1,"inconclusive: 79.4 µM [inhibitor, partial curve, poor fit]"
21,Cn1c(SCC(=O)N2CCOCC2)ncc(C(=O)Nc2ccc(F)cc2)c1=O,inactive
22,CC1(CCc2ccccc2)NC(=O)N(CC(=O)N2CC(=O)Nc3ccccc32)C1=O (centres undefined),inactive

row,SMILES,Potency
1,COc1ccc(C2(C(=O)NCC3CCCO3)CCOCC2)cc1 (centres undefined),"inconclusive: 89.1 µM [inhibitor, single point]"
2,N#CC1=C2SCN(c3ccccc3)CN2C(=O)CC1c1ccccc1Cl (centres undefined),"inconclusive: 31.6 µM [inhibitor, full curve, poor fit] and inconclusive: 50.1 µM [inhibitor, partial curve, poor fit]"
3,COc1ccc(NC(=O)CC(C)C)c(OC)c1,"inconclusive: 89.1 µM [inhibitor, single point]"
4,COc1ccc2[nH]c3c(c2c1)CCN1C(=O)C(CC(=O)NCc2ccc(OC)c(OC)c2)C[C@H](C(=O)N2CCCCC2)[C@@]31CCc1ccccc1 (some centres undefined),"inconclusive: 89.1 µM [inhibitor, single point]"
5,COc1ccccc1CNC(=O)COC(=O)c1cc(-c2ccco2)nc2ccccc12,"inconclusive: 28.2 µM [inhibitor, full curve, poor fit]"
6,O=C(NCC(=O)N1CCCCC1)c1sc2ccccc2c1Cl,inactive
7,CCCC(=O)Nc1c2c(nn1-c1ccccc1)CSC2,inactive
8,CN(C)CCNC(=O)c1cccc2ccc(-c3ccc(-c4ccccc4)cc3)nc12,"inconclusive: 100 µM [inhibitor, single point]"
9,COC(C)(C)CCCC(C)C/C=C/C(C)=C/C(=O)O (centres undefined),"inconclusive: 0.0267 µM [inhibitor, full curve, poor fit]"
10,CCC(=O)NC(c1ccc(C)cc1)c1cc(Cl)c2cccnc2c1O (centres undefined),inactive
11,Oc1ccc(C(=S)N2CCN(Cc3ccccc3)CC2)cc1,"inconclusive: 44.7 µM [inhibitor, partial curve, poor fit]"
12,O=C(O)CCNc1nc(-c2ccccc2)nc2ccccc12,"inconclusive: 89.1 µM [inhibitor, single point]"
13,COc1ccc(-n2nc3c(N4CCC(C(=O)NCCc5ccccc5C)CC4)nnc(C)c3c2C)cc1,inactive
14,O=C(O)CSc1nnc2c(n1)[nH]c1ccccc12,"inconclusive: 25.1 µM [inhibitor, full curve, poor fit]"
15,Cc1ccc(CSc2nnc(SCC(=O)N/N=C/c3c[nH]c4ccccc34)s2)cc1,"inconclusive: 17.8 µM [inhibitor, full curve, poor fit]"
16,O=C(CC(c1ccccc1)c1cc(Br)ccc1O)NCCN1CCOCC1 (centres undefined),inactive
17,O=Nc1c(O)n(Cc2ccc(Cl)cc2Cl)c2ccccc12,inactive
18,Cc1c(C(=O)N2CCC(C(=O)Nc3ccc(F)c(Cl)c3)CC2)sc2nc[nH]c(=O)c12,"inconclusive: 89.1 µM [inhibitor, single point]"
19,O=C1/C(=C/N(C(=O)c2ccco2)c2ccc(Br)cc2)Sc2ccccc21,"inconclusive: 35.5 µM [inhibitor, full curve, poor fit]"
20,Cc1cccc(C(=O)NC(=S)NNC(=O)c2cccs2)c1,"inconclusive: 79.4 µM [inhibitor, partial curve, poor fit]"
